Experimental data published in publication PMC12298351, “Novel 3,19-(N-Phenyl-3-(4-fluorophenyl)-pyrazole) Acetal of Andrographolide Promotes Cell Cycle Arrest and Apoptosis in MDA-MB-231 Breast Cancer Cells” (Pharmaceuticals, 2025).

Tested on: NCI-H322M
Settings: for Total growth inhibition (TGI): Non-Small Cell Lung; for GI50: Non-Small-Cell Lung; for CC50: read-out: 50% lethal concentration (LC50), Non-Small Cell Lung

Row | SMILES | Total growth inhibition (TGI) | GI50 | CC50
1 | C=C1CCC2C3(C)COC(c4cn(-c5ccccc5)nc4-c4cccc(Cl)c4)OC3CCC2(C)C1CC=C1C(=O)OCC1O (stereo not drawn) [1d] | 19.9 µM | 3.26 µM | > 100 µM
2 | C=C1CCC2C3(C)COC(c4cn(-c5ccccc5)nc4-c4cccc(F)c4)OC3CCC2(C)C1CC=C1C(=O)OCC1O (stereo not drawn) [1c] | 19.4 µM | 4.22 µM | > 100 µM
3 | C=C1CCC2C3(C)COC(c4cn(-c5ccccc5)nc4-c4cccc(Br)c4)OC3CCC2(C)C1CC=C1C(=O)OCC1O (stereo not drawn) [1e] |  |  | > 100 µM
4 | C=C1CCC2C3(C)COC(c4cn(-c5ccccc5)nc4-c4ccc(Cl)cc4)OC3CCC2(C)C1CC=C1C(=O)OCC1O (stereo not drawn) [1g] | 36.5 µM | 1.02 µM | 
5 | C=C1CCC2C3(C)COC(c4cn(-c5ccccc5)nc4-c4cccc([N+](=O)[O-])c4)OC3CCC2(C)C1CC=C1C(=O)OCC1O (stereo not drawn) [1b] | > 100 µM | 1.76 µM | > 100 µM
6 | C=C1CCC2C3(C)COC(c4cn(-c5ccccc5)nc4-c4ccc(F)cc4)OC3CCC2(C)C1CC=C1C(=O)OCC1O (stereo not drawn) [1f, 3,19-(N-Phenyl-3-(4-fluorophenyl)-pyrazole) Acetal of Andrographolide] | 15.8 µM | 3.34 µM | 90.6 µM
7 | C=C1CCC2C3(C)COC(c4cn(-c5ccccc5)nc4-c4ccc(C)cc4)OC3CCC2(C)C1CC=C1C(=O)OCC1O (stereo not drawn) [1i] | 25.3 µM | 4.92 µM | > 100 µM
8 | C=C1CCC2C3(C)COC(c4cn(-c5ccccc5)nc4-c4ccccc4)OC3CCC2(C)C1CC=C1C(=O)OCC1O (stereo not drawn) [1a] | 14 µM | 3.35 µM | 83.7 µM
9 | C=C1CCC2C3(C)COC(c4cn(-c5ccccc5)nc4-c4ccc(Br)cc4)OC3CCC2(C)C1CC=C1C(=O)OCC1O (stereo not drawn) [1h] | 26.4 µM | 4.2 µM | > 100 µM
10 | C=C1CCC2C3(C)COC(c4cn(-c5ccccc5)nc4-c4ccc(OC)cc4)OC3CCC2(C)C1CC=C1C(=O)OCC1O (stereo not drawn) [1j] | 16.5 µM | 2.94 µM | > 100 µM
